Experimental data: article PMC10668032
The list shows a part of the results. At the low end of the ranking the order means little.

These sequences were tested against SIX1 homeodomain (reference allele) (UniProt Q15475) (assay: universal protein binding microarray). Conditions: Universal all-10-mer PBM (8x60K, AMADID 030236), 300 nM GST-tagged protein, Alexa Fluor 488 anti-GST; buffer, salt, pH and temperature not stated; high values mean tight binding; most listed sequences are background and not binding sites; double strand, one strand shown.

Row | Sequence | binding signal [E-score]
1 | ACGATCGG | 0.169
2 | CGCGCCTA | -0.0718
3 | GAGAGCAA | -0.019
4 | CCTTATGC | -0.069
5 | ATCGATCC | 0.389
6 | ATCCCATC | 0.297
7 | GTACGCAA | -0.0828
8 | AAATACTT | -0.0329
9 | CGAGGAGC | -0.0273
10 | ATTTCGTA | -0.106
11 | CATGCCTC | -0.0904
12 | ATGAATGC | 0.0191
13 | AGATTGAT | 0.221
14 | TAGCCCAA | -0.132
15 | CGGTTCTC | -0.117
16 | AATGAGGT | -0.163
17 | ACACCCGT | 0.296
18 | CATAGAAA | -0.121
19 | CATTTCTA | -0.238
20 | GATCACAA | 0.31
21 | GCAAATTA | -0.15
22 | TAACACGA | 0.19
23 | AACCGGTA | 0.073
24 | AGTCCACC | -0.177
25 | TCTTGGCA | -0.132

Row | Sequence | binding signal [E-score]
26 | GATACTTA | 0.401
27 | CTTACCTC | -0.229
28 | CCCAGAAA | -0.081
29 | ATGGGAAG | 0.0379
30 | ACTGTGCG | -0.0925
31 | ATTTTAGG | -0.149
32 | ACAGTGGT | 0.155
33 | CGTTCAAC | -0.0311
34 | CGTCACGC | -0.233
35 | ACAACATC | -0.123
36 | ACGAGCCT | -0.0268
37 | AAATTTAT | -0.143
38 | AGATAACA | -0.0399
39 | CGTAGGTC | -0.0984
40 | AGCATGAC | -0.158
41 | CAAGGCTA | -0.088
42 | GTTAAGGA | -0.0526
43 | AGCCGACA | -0.00148
44 | GAGAACAA | -0.188
45 | CGTGGAAA | 0.0351
46 | ATCTCTTG | 0.224
47 | CAACAAGC | -0.24
48 | CTGACGTC | -0.0771
49 | CAGTCCCC | -0.196
50 | ACCATATC | 0.418

Row | Sequence | binding signal [E-score]
51 | AACCGCGT | -0.0438
52 | ACTCTGAA | -0.109
53 | GGGATGTA | 0.179
54 | AAGAGCAT | -0.055
55 | AGGCTGGG | -0.0118
56 | AATGCTAT | 0.0612
57 | GCAGTCCC | -0.218
58 | AGCATGAA | -0.162
59 | GGCTATAA | 0.123
60 | ACTGTCAT | 0.00388
61 | CAGTCCGG | 0.000675
62 | CCCAATCA | -0.163
63 | GGCCACAA | -0.217
64 | AATCAGTC | -0.192
65 | CACCGGTC | 0.111
66 | AGATACCC | 0.468
67 | CGAAATCG | -0.14
68 | CAACGAGG | 0.0724
69 | AACCACGC | -0.156
70 | CTAAAGAC | -0.293
71 | AGTGATTG | -0.111
72 | ATCGTAAG | -0.0305
73 | GTCGTTGA | -0.00164
74 | GAGGTCAA | -0.236
75 | AAACCAAC | -0.337

Row | Sequence | binding signal [E-score]
76 | CTCAACAC | 0.121
77 | CCAAGAGG | -0.121
78 | CCCATTCA | -0.116
79 | AGCTGACT | -0.197
80 | CGACATAG | -0.146
81 | ACACTGCA | 0.0198
82 | CACGTCAG | -0.0568
83 | CGGTTCCC | -0.0878
84 | AACTGTAT | 0.101
85 | GTTGCTGA | -0.146
86 | TCAACGAA | -0.188
87 | TCCGTACA | 0.0666
88 | AACACGAG | -0.0862
89 | AGAGCAGA | -0.0762
90 | CCGTATCC | 0.438
91 | CGCTACAA | -0.148
92 | AGGGGGTA | 0.294
93 | ACTCCCCA | -0.0768
94 | CAATTGTA | -0.014
95 | ATGCAGTA | 0.0697
96 | CCTCCAGG | -0.0847
97 | CCGCAGGC | 0.00386
98 | AAAGTGCT | -0.3
99 | AGCCATCC | -0.0445
100 | GACCAAAC | -0.167

Row | Sequence | binding signal [E-score]
101 | AGTAGGAG | -0.121
102 | ACATATGC | -0.0816
103 | AATAGTAA | -0.257
104 | ATGATTAA | -0.0186
105 | ACTAATGC | -0.0417
106 | GTCGAATA | -0.0148
107 | AATTTACC | 0.0693
108 | AGTCTCAC | 0.0122
109 | CCTGTTAG | -0.0306
110 | TAACTACA | -0.00081
111 | CACCGACG | -0.0228
112 | GAACACTC | -0.204
113 | CCCTTACG | -0.091
114 | CACACATC | -0.0882
115 | CATAACCA | -0.0237
116 | ATTGGAAC | 0.00959
117 | GAACTATC | 0.23
118 | GAGACCAC | 0.00277
119 | AGGTACAA | -0.227
120 | CAAGATTG | -0.034
121 | ATCGAATA | 0.182
122 | AGGCGTCC | -0.194
123 | ATTAGACA | 0.0637
124 | CAGGCCTA | -0.00784
125 | CCGTGAGA | 0.149

Row | Sequence | binding signal [E-score]
126 | CTGTAGCC | -0.124
127 | ATGAACTA | -0.041
128 | CGCATGGA | 0.124
129 | AAAACTCC | -0.0835
130 | TGGGGCAA | -0.205
131 | CAAACGGC | -0.179
132 | GTATGGGA | 0.05
133 | TACGTACA | 0.13
134 | CAGTAGAA | -0.0297
135 | AATCATAA | -0.0401
136 | TGCCGAAA | -0.202
137 | AAGGAGGT | -0.11
138 | AAAAGCCT | -0.267
139 | CGTTCGGA | -0.0504
140 | AACAATGT | -0.173
141 | CCGCCTAC | -0.0588
142 | ACGAAACA | -0.039
143 | TAGACGAA | -0.225
144 | TACGAAAA | -0.0244
145 | AGTCTGAT | 0.19
146 | ATGCTGCG | -0.144
147 | CGGATCAC | 0.463
148 | CCAGGGGC | -0.202
149 | AGGTATAC | 0.4
150 | GCTTGTCC | -0.163

Row | Sequence | binding signal [E-score]
151 | GACAAAGA | -0.0648
152 | ACCAGTGG | -0.0189
153 | CGCTGCCG | -0.138
154 | CGTTGTAG | -0.0454
155 | ACTCTTCA | -0.131
156 | ATAATCAA | -0.113
157 | GGAGGGAA | -0.122
158 | ATGGCCTA | -0.0831
159 | CTATAGGC | -0.108
160 | CAAGTCAC | -0.15
161 | ATCAAGAC | 0.0793
162 | CAGACGAA | -0.097
163 | GAACAACA | -0.17
164 | GCCGGAGA | -0.0098
165 | ACTCGTTA | -0.0672
166 | AGCCAACT | -0.229
167 | TGCTATAA | -0.183
168 | AAGCTGCT | -0.293
169 | CCGTAACC | -0.0538
170 | CCGCAAAC | 0.0548
171 | GCATTTCA | -0.162
172 | AACTTGAC | -0.104
